# In PubChem BioAssay AID2147 (National Center for Advancing Translational Sciences (NCATS), 2009):
# Hit rate of the full screen: of about 230,000 compounds, about 3,600 (1.6%) were called active. Inconclusive means that the source gave no clear call. Such entries were picked first, then a sample of the others. Calls come from the whole dose curve; as a rule, active = well fitted inhibition curve with a large enough effect (not every such curve was filed as active); inconclusive = small, poorly fitted or top-dose-only effect, or another doubt; inactive = no such curve, though single readings can be large or run the other way. Where the call is inconclusive, the potency comes from a doubtful curve fit.
# Biological target: Lysine-specific demethylase 4E (Homo sapiens) (UniProt B2RXH2)
# Sequence of UniProt B2RXH2 (B2RXH2 whole entry, looked up, the tested form may be a part): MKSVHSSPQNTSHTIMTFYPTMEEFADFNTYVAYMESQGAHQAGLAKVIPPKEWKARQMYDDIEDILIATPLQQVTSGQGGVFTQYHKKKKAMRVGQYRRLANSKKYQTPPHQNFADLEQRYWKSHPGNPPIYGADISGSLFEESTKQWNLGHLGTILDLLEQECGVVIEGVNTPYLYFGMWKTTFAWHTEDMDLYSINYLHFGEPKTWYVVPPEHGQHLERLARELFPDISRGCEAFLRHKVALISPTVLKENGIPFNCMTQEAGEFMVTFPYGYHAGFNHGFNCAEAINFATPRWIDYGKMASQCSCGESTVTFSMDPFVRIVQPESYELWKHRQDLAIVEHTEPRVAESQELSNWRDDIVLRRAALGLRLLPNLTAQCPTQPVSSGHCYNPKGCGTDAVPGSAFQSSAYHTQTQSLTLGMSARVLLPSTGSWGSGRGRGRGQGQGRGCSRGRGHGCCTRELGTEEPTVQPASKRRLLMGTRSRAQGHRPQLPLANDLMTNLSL
# Experiment: qHTS Assay for Inhibitors of Human Jumonji Domain Containing 2E (JMJD2E)
# Conditions: JMJD2E catalytic domain, FDH-coupled NADH fluorescence (FDH is formaldehyde dehydrogenase); series mostly up to 57.1 µM; activity change, negative = inhibition: at the top concentration
# Note: nearly all actives have a fitted effect of over 50% in size.
# Potency is the fitted concentration of half-maximal effect; tags give direction and shape of the fitted curve.
# 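Throughout, for activity change, negative = inhibition: 0% = wells with enzyme and -100% = buffer wells without enzyme.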
SMILES,Potency,"activity change, negative = inhibition"
COc1ccc2c(c1)c1ncn(CC3CCCO3)c(=O)c1n2C (centres undefined),"inconclusive: 22.4 µM [inhibitor, partial curve]",–
O=C(/C=C\c1ccc(-c2ccccc2)o1)c1ccccc1,–,inactive: -11.1%
C(=N\N1CCOCC1)/c1cn(-c2ccccc2)nc1-c1ccccc1,–,inactive: 2.82%
Cc1nnc(SCC(=O)NNC(=O)c2ccc(Br)cc2)n1C,–,inactive: -14.9%
O=C(CSc1nc2ccccc2o1)Nc1nc(-c2ccccc2)c(-c2ccccc2)s1,"inconclusive: 25.1 µM [inhibitor, partial curve]",–
O=C1CCCC2=C1C1(O)C(=O)c3ccccc3C1(O)O2 (centres undefined),–,inactive: -4.92%
COc1ccc(CC(=O)Nc2ccc3c(C)cc(=O)oc3c2)cc1OC,"inconclusive: 31.6 µM [inhibitor, partial curve]",–
Cc1nc(NCCCN2CCOCC2)c2oc3ccccc3c2n1,"inconclusive: 39.8 µM [inhibitor, single point]",–
CC(C)c1cccc(C(C)C)c1NC(=O)Cn1c(=O)cnc2ccccc21,"inconclusive: 15.8 µM [inhibitor, partial curve]",–
CC(=O)Nc1nc2c(c3c1c(=O)oc1ccccc13)CCCCC2,"inconclusive: 28.2 µM [inhibitor, single point]",–
CC(=O)N=Cc1c(C)c(C#N)c(=O)n(C)c1O,"inconclusive: 22.4 µM [inhibitor, partial curve]",–
COc1cccc(C2C(C(=O)c3cc4ccccc4o3)=C(O)C(=O)N2c2cc(C)on2)c1OC (centres undefined),"inconclusive: 39.8 µM [inhibitor, single point]",–
COc1cccc2sc(Nc3nc(-c4cc5ccccc5oc4=O)cs3)nc12,–,inactive: 0.86%
CC1=NOC(=O)/C1=C/c1ccc(O)cc1,active: 28.2 µM,–
Cc1c(N2C(=O)C3C4C=CC(C4)C3C2=O)c(=O)n(-c2ccccc2)n1C (centres undefined),"inconclusive: 39.8 µM [inhibitor, single point]",–
CSc1nc2nc(-c3ccccc3)cc(C(F)(F)F)n2n1,"inconclusive: 35.5 µM [inhibitor, partial curve]",–
O=C(Nc1ccc2sc3ccccc3c(=O)c2c1)c1ccccc1Cl,"inconclusive: 22.4 µM [inhibitor, partial curve]",–
O=C(Nc1ccccc1SCC1CSc2nc3ccccc3c(=O)n21)c1cccc(Cl)c1 (centres undefined),–,inactive: 2.79%
CC1CCN(C(C(=O)Nc2ccc(C(C)C)cc2)c2ccc3c(c2)OCO3)CC1 (centres undefined),–,inactive: -7.2%
Cc1ccc2nc(C)c3c(c2c1)SCC3,"inconclusive: 31.6 µM [inhibitor, single point]",–
COc1ccccc1-c1cc2nc(C)c(CCC(=O)NCc3ccc(F)cc3)c(C)n2n1,"inconclusive: 31.6 µM [inhibitor, partial curve]",–
COc1ccc(C[C@H]2c3cc(O)c(OC)cc3CC[N+]2(C)[O-])cc1O (some centres undefined),"inconclusive: 28.2 µM [inhibitor, partial curve]",–
NC(=S)N=Nc1c(O)n(Cc2ccc(Br)cc2)c2ccccc12,–,inactive: 5.59%

SMILES,Potency,"activity change, negative = inhibition"
O=c1c2ccccc2nc(/C=C/c2c[nH]c3ccccc23)n1CCO,–,inactive: -17.4%
Cc1cc(C)n2nc(CC(=O)NCc3ccc(F)cc3)nc2n1,–,inactive: 7.49%
C/C(=N\Nc1ccc(F)cc1F)c1ccc(Br)s1,–,inactive: -2.83%
COc1ccc(C2C=C(C)Nc3nc4ccccc4n32)cc1 (centres undefined),"inconclusive: 39.8 µM [inhibitor, single point]",–
NC(=O)C1CCCN(C(=O)Nc2cccc3ccccc23)C1 (centres undefined),"inconclusive: 28.2 µM [inhibitor, partial curve]",–
O=C(OCc1cc2ccccc2[nH]c1=O)c1cccs1,"inconclusive: 31.6 µM [inhibitor, single point]",–
Cc1ccc(C2=NN(C3=NN=C(N)Cc4ncnn43)C(O)(C(F)(F)F)C2)cc1 (centres undefined),"inconclusive: 35.5 µM [inhibitor, single point]",–
Cc1cc(C)c2cc(C#N)c(N3CCCC3)nc2c1,"inconclusive: 31.6 µM [inhibitor, partial curve]",–
COC(=O)c1ccc(-c2sc3nc(N4CCOCC4)c4c(c3c2N)CC(C)(C)OC4)o1,"inconclusive: 3.16 µM [inhibitor, partial curve]",–
CSc1nc(N2CCOCC2)c2sccc2n1,"inconclusive: 39.8 µM [inhibitor, single point]",–
CC(=O)c1cccc(N(C(=O)c2ccco2)C(C(=O)NC2CCCC2)c2ccncc2)c1 (centres undefined),–,inactive: -15.7%
CCn1ccc2cc(OC)ccc2c1=S,"inconclusive: 11.2 µM [inhibitor, partial curve, poor fit]",–
COC(=O)CN=C1OC(=O)N2C(=O)C3=C4C(C[C@H]5C(=O)N(c6ccccc6)C(=O)[C@H]5[C@H]4[C@@]12Cc1ccccc1)[C@H]1C(=O)N(c2ccccc2)C(=O)[C@H]1[C@H]3C (some centres undefined),–,inactive: 0.699%
Cc1cc(NC(=O)c2cccs2)ncc1NC(=O)c1cccc(F)c1,"inconclusive: 5.62 µM [inhibitor, single point]",–
CCOC(=O)CNc1c(-c2ccc(Cl)cc2)nc2cnccn12,"inconclusive: 31.6 µM [inhibitor, partial curve]",–
CNS(=O)(=O)c1ccc(NC(=O)c2cnn3c(C(F)F)cc(-c4ccccc4)nc23)cc1,"inconclusive: 31.6 µM [inhibitor, single point]",–
N#CCC(=O)Nc1ccc(C(=O)OCC(=O)N(Cc2ccccc2)C2CCS(=O)(=O)C2)cc1 (centres undefined),"inconclusive: 5.01 µM [inhibitor, full curve, poor fit]",–
O=C(CCc1ccc(O)cc1)c1c(O)cc(O)cc1O[C@H]1OC(CO)C(O)C(O)C1O (some centres undefined),"inconclusive: 35.5 µM [inhibitor, single point]",–
CCC1Cc2c(nc(N)c3c(N)nc(N4CCOCC4)c(C#N)c23)O1 (centres undefined),"inconclusive: 28.2 µM [inhibitor, partial curve]",–
CCOc1ccc(N2CC(C(=O)NCc3ccc(C)n3C)CC2=O)cc1 (centres undefined),"inconclusive: 25.1 µM [inhibitor, single point]",–
C=CCNc1ncnc2c1cnn2-c1cccc(C)c1,"inconclusive: 31.6 µM [inhibitor, partial curve]",–
CN(Cc1cnccn1)C(=O)CC1C(=O)NCCN1Cc1cccc(Oc2ccccc2)c1 (centres undefined),–,inactive: -16.7%
Cc1ccc2nc(-c3cc(N)cc(N)c3)oc2c1,"inconclusive: 31.6 µM [inhibitor, single point]",–

SMILES,Potency,"activity change, negative = inhibition"
COc1ccc(Oc2c(C)oc3c(CN(C)C)c(O)ccc3c2=O)cc1,"inconclusive: 31.6 µM [inhibitor, partial curve]",–
COc1ccc(CCNC(=O)C2CCN(S(=O)(=O)N3CCCCCC3)CC2)cc1OC,–,inactive: 3.56%
CC1=C(C(N)=O)C(c2ccco2)C(C(N)=O)=C(C)N1,"inconclusive: 39.8 µM [inhibitor, single point]",–
Cc1ccc2c(n1)sc1c(N)ncnc12,"inconclusive: 22.4 µM [inhibitor, partial curve]",–
CCOc1cc(CNc2ccc3[nH]c(=O)[nH]c3c2)ccc1OCC(=O)NC(C)(C)C,"inconclusive: 25.1 µM [inhibitor, partial curve]",–
COc1ccc(C2=Nc3ccccc3OC2)cc1,"inconclusive: 25.1 µM [inhibitor, partial curve]",–
CCOC(=O)C1=C(C)OC(N)=C(C#N)C1c1cncc(-c2ccc(F)cc2)c1 (centres undefined),"inconclusive: 39.8 µM [inhibitor, single point]",–
CCC(C)NCCOCCOc1ccc(C)cc1Br (centres undefined),"inconclusive: 39.8 µM [inhibitor, single point]",–
CCOC(=O)C[N+](C)(C)CCOC1CC2CCC1(C)C2(C)C (centres undefined),active: 17.8 µM,–
COc1cc(-c2ccc(NC(=O)NC3CC3)c(OC)c2)ccc1NC(=O)NC1CC1,"inconclusive: 22.4 µM [inhibitor, partial curve]",–
CC(=O)c1ccccc1OCC(O)CN1CCN(CCN2C(=O)c3cccc4cccc(c34)C2=O)CC1 (centres undefined),"inconclusive: 14.1 µM [inhibitor, partial curve]",–
O=C(Nc1cccn(Cc2ccc(F)cc2)c1=O)NC1CCCCC1,"inconclusive: 28.2 µM [inhibitor, partial curve]",–
O=C(O)C1Cc2ccccc2CN1S(=O)(=O)c1ccccc1 (centres undefined),–,inactive: -3.35%
CCCCNC(=O)CSc1nnc(-c2c[nH]c3ccccc23)n1CC1CCCO1 (centres undefined),–,inactive: -2.84%
C#CCNC(=O)C1=C[C@@H](c2ccc(Br)cc2)C[C@@H](OCCCCO)O1,"inconclusive: 35.5 µM [inhibitor, single point]",–
COc1ccc(OC)c2sc(NC(=O)C3=COCCO3)nc12,"inconclusive: 35.5 µM [inhibitor, single point]",–
Cc1ccc(/C=C2\Oc3c(ccc(O)c3CN3CCN(C)CC3)C2=O)cc1,"inconclusive: 35.5 µM [inhibitor, single point]",–
O=C1CCCC2=C1C(c1ccncc1)Nc1ccccc1N2 (centres undefined),"inconclusive: 35.5 µM [inhibitor, single point]",–
COc1ccc(/C=C/c2nnc(NC(=O)c3ccco3)s2)cc1,"inconclusive: 31.6 µM [inhibitor, partial curve]",–
CC1=CC(=O)N(c2cccc(C(F)(F)F)c2)C1c1ccc(Cl)cc1 (centres undefined),–,inactive: -9.42%
CC1=Nc2ccccc2/C1=C/c1c(N)n2c(S(=O)(=O)C(C)C)nsc2nc1=O,–,inactive: -8.82%
COCc1[nH]nc2c1C(c1cc(OC)c(O)c(OC)c1)C(C#N)=C(N)O2 (centres undefined),"inconclusive: 39.8 µM [inhibitor, single point]",–
Cc1nc2c(-c3ccc(F)cc3)cnn2c2c1CCC2,"inconclusive: 35.5 µM [inhibitor, single point]",–
